About 65 (0.1%) of roughly 45,000 compounds were called active. Calls follow the shape of the dose curve; as a rule, active = well fitted activation curve with a large enough effect; inconclusive = small, poorly fitted or top-dose-only effect; inactive = no such curve, though single readings can be large or run the other way. The list shows a part of the results.
The molecules below were run against Galactocerebrosidase (Homo sapiens) (UniProt P54803) (assay: A Novel Cell-Based Assay to Identify Small Molecules for B -Galactocerebrosidase). Conditions: 145M-Twi-hGALC-G270D cells (Twitcher mouse brain line with human GALC G270D), HMU-beta-Gal fluorescence, 48 h; series mostly up to 57.5 µM; activation: at the top concentration.
Chain of UniProt P54803 (P54803 whole entry, looked up): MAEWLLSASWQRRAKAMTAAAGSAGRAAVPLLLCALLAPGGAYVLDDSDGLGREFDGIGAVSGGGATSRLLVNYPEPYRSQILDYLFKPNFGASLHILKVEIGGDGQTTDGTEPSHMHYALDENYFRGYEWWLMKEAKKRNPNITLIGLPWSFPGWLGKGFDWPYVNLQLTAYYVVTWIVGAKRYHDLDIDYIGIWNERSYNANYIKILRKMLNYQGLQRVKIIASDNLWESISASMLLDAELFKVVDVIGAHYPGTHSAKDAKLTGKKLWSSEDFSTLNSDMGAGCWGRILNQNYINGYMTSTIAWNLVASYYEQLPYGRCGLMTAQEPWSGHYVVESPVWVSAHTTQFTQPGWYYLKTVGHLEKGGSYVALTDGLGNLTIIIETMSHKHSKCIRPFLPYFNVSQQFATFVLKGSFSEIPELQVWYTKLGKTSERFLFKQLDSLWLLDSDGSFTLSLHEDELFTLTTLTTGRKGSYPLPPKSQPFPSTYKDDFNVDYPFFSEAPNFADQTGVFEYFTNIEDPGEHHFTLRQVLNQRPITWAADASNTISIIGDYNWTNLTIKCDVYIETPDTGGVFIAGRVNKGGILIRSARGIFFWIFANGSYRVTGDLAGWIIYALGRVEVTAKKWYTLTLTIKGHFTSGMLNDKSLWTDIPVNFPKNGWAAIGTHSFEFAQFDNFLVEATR
How it was run: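 Mutant human GALC (G270D), stably expressed in a Twitcher mouse brain cell line lacking endogenous GALC, is measured in live-treated cells via 6-hexadecanoylamino-4-methylumbelliferyl-β-galactoside hydrolysis (0.1 mM final, pH 5.2) with fluorescent detection.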
Also: 0% is about no effect; nearly all actives have a fitted effect of over 65% in size.

activation, inactive:
CCn1cc(C(=O)NCCc2ccccc2)c(=O)c2cc(S(=O)(=O)N3CCOCC3)ccc21 3.23%
O=C(CSc1nc2ccccc2n1Cc1ccc(F)c(Cl)c1)N1CCN(c2ccc(F)cc2)CC1 -2.75%
Cc1cccc(-n2ccnc2SCC(=O)Nc2ccccc2C(F)(F)F)c1 -20.1%
CCc1ccc(NC(=O)CSC2=Nc3ccccc3C3=NC(CCC(=O)NCc4cccs4)C(=O)N23)cc1 (centres undefined) -3.03%
CCCc1nn2c(=O)cc(COC(=O)c3ccc(NC(=O)c4cccs4)cc3)nc2s1 -18.1%
COc1ccc(OC)c(CCNC(=O)CCCc2nnc3n(C)c(=O)c4sccc4n23)c1 -3.88%
COc1cccc(N2C(=O)CSC23C(=O)N(CC(=O)Nc2cc(C)ccc2C)c2ccccc23)c1 (centres undefined) -20.2%
COC(=O)c1ccc(NC(=O)c2nn(C)c3c2CS(=O)(=O)c2ccccc2-3)cc1 -6.1%
CCOC(=O)c1cc2c(=O)n3ccccc3nc2n(Cc2ccco2)c1=NC(=O)c1cc(C)cc(C)c1 -14.2%
COc1ccc(CCNc2nc3c(c(=O)n(C)c(=O)n3C)n2Cc2ccc(F)cc2)cc1OC -19.1%
COc1cc(CN2CCc3nc(Nc4ccc5c(c4)OCCO5)ncc3C2)cc(OC)c1OC -12.7%
CCC(=O)N1CCc2cc(S(=O)(=O)NC(C(=O)NCc3ccc(OC)cc3)C(C)C)ccc21 (centres undefined) -35.1%
Cc1ccc(Cn2c(C)c(CNC3CCCCC3)c(C(=O)O)c2C)cc1 -9.21%
Cc1ccc(Cl)cc1NC(=O)c1oc2ccc(S(=O)(=O)N3CCC4(CC3)OCCO4)cc2c1C -8.16%
Cc1ccc2sc(N3CCN(C(=O)C4COc5ccccc5O4)CC3)nc2c1C (centres undefined) -15.7%
Cc1cc(C)c(NC(=O)c2sc3nc(C)cc(C)c3c2N)c(C)c1 -12.9%
COc1ccc(C)cc1NC(=O)CN1CCN(CC(=O)Nc2ccccc2F)CC1 -15.7%
CC1CCN(S(=O)(=O)c2ccc3nc(-c4cccnc4)cc(C(=O)NCCCOC(C)C)c3c2)CC1 -13.3%
COc1ccc2[nH]cc(CCNC(=O)Nc3ccccc3C)c2c1 -11.7%
CCCCNC(=O)C1CCC(Cn2c(=O)c3sccc3n(CC(=O)Nc3ccccc3)c2=O)CC1 (centres undefined) -12.7%
N#Cc1ccc(NC(=O)C2Cc3ccccc3CN2S(=O)(=O)c2ccc(F)cc2)cc1 (centres undefined) 1.99%
O=C(COc1ccc(F)cc1)Nc1ccc2nc(SCCOc3ccccc3)sc2c1 -13.8%
CCOC(=O)c1c(C)oc2ccc(N(C(C)=O)S(=O)(=O)c3c(C)cc(C)cc3C)cc12 -23.8%
COC(=O)c1cc2sccc2n1Cc1ccc(F)cc1Cl -26.1%
COc1ccc(OC)c(CC2C(=O)Nc3ccc(Br)cc32)c1 (centres undefined) -17.5%
Cc1cc(N2CCN(c3cc(Cl)ccc3C)CC2)n2nc(-c3ccccc3)nc2n1 -19.8%
Cc1cc(F)ccc1S(=O)(=O)Nc1cc2c(C(=O)O)c(C)oc2c2ccccc12 -21%
CCC(=O)N1CCc2cc(Br)cc(S(=O)(=O)N3CCN(c4cc(C)ccc4C)CC3)c21 -9.34%
CCOC(=O)c1cc(-c2ccc(C)cc2)n(CCC(=O)NCCc2ccc(C)cc2)c1C -9.3%
Cc1cccc(C)c1NC(=O)CCC(=O)N1Cc2ccccc2Oc2ncccc21 -24.7%
CCC(=O)N1CCc2cc(Br)cc(S(=O)(=O)CCC(=O)Nc3ccc(Cl)cc3)c21 -4.48%
COc1cc(-c2cc3n(C)c(C)c(CCC(=O)NC4CCCCC4)c(=O)n3n2)cc(OC)c1OC -4.2%
CCN(CC)CCNC(=O)c1cn(CC)c2ccc(S(=O)(=O)N3CCc4ccccc4C3)cc2c1=O -23.8%
O=C(NC1CCN(Cc2ccccc2)CC1)c1ccc(Cn2c(=O)c3ccccc3n(Cc3cccc(F)c3)c2=O)cc1 -3.67%
CC(=O)N(CC(O)CO)c1c(I)c(C(=O)NCC(O)CO)c(I)c(C(=O)NCC(O)CO)c1I (centres undefined) -20.5%
COc1ccc(Oc2nc3c(c(=O)n(C)c(=O)n3C)n2Cc2ccc(Cl)cc2Cl)cc1 -16.6%
O=C(Nc1ccccc1C(=O)OCc1cc(=O)n2ccsc2n1)c1ccccc1Cl -4.54%
COCCn1c(=N)c(C(=O)NC2CCCC2)cc2c(=O)n3cc(C)ccc3nc21 -10.5%
CCOc1ccccc1CNC(=O)c1oc2c(c1C)-c1nn(Cc3cccc(Cl)c3)cc1CC2 -45.3%
Cc1cccc(C(=O)NCc2nc3ccccc3n2Cc2ccccc2Cl)c1 -11.8%
Cc1ccc2c(=O)c(C(=O)c3ccc(Cl)cc3)cn(CC(=O)Nc3ccc4c(c3)OCCO4)c2n1 -16.9%
O=C(Nc1cccc(OCc2cc(=O)n3ccccc3n2)c1)Nc1cccc(C(F)(F)F)c1 -0.33%
Cc1ccc(NC(=O)C2CCCN2S(=O)(=O)c2cccc3cccnc23)c(C)c1 (centres undefined) 6.4%
O=C(Cc1ccc(NC(=O)N2CCSc3ncccc32)cc1)NCc1cccc(Cl)c1 -15.7%
COc1ccc(CCNC(=O)C2c3ccccc3C(=O)N2Cc2ccccc2)cc1OC (centres undefined) -11.6%
CCOc1ccc(CNC(=O)C2=Cc3cccc(OC)c3OC2)cc1 -0.162%
COc1ccc(Cl)cc1C(=O)NCCS(=O)(=O)N1CCN(c2ccccc2OC)CC1 -6.68%
COc1cccc(NC(=O)Cn2c(=O)n(Cc3ccc(C(=O)NCc4ccc(C)cc4)cc3)c(=O)c3ccccc32)c1 -6.57%
CCOc1ccc(Cn2c(CNS(=O)(=O)c3ccc(C(C)(C)C)cc3)nc3cccnc32)cc1 -3.4%
CCOC(=O)c1c(C)n(-c2ccccc2)c2ccc(OC(=O)c3c(F)cccc3F)cc12 2.69%
COc1c(C)cc(NS(=O)(=O)c2ccc3c(c2)OCCO3)cc1C -13.6%
CCOc1ccc(NC(=O)CCNS(=O)(=O)c2cccs2)cc1 -8.25%
O=C(CN1C(=O)C2(SCC(=O)N2c2ccc(F)c(F)c2)c2ccccc21)Nc1cccc(Cl)c1 (centres undefined) -16.9%
Cc1ccccc1OCC(=O)Nc1ccc2nc(SCC(=O)N3CCOCC3)sc2c1 -9.94%
Cc1cc(Nc2ccccc2O)nc(C)n1 -10.5%
COc1ccc(NC(=O)CCCN2C(=O)CCn3nc(-c4cn(C)c5ccccc45)cc32)cc1 -13.4%
Cc1ccc(C)c(S(=O)(=O)n2nc(C)c(S(=O)(=O)N3CCCCCC3)c2C)c1 0.984%
COc1ccc(CNC(=O)C2CCN(C(=O)N3CCOc4ccc(Cl)cc43)CC2)cc1 -3.78%
CCOc1ccc(C(=O)NCc2nc(-c3ccc(Cl)cc3)no2)cc1OCC -7.97%
CCOC(=O)c1cnc2ccc(OC)cc2c1Nc1cccc(C(C)=O)c1 -0.0751%
Cc1cccc(NC(=O)C2CCN(S(=O)(=O)c3c(C)noc3/C=C/c3ccco3)CC2)c1 -1.43%
CCN(Cc1ccccc1)S(=O)(=O)c1ccc(F)c(C(=O)Nc2cc(C)ccc2OC)c1 3.35%
O=C(OCC1CCCO1)c1ccc2c(c1)N(Cc1ccc(F)cc1)C(=O)c1ccccc1S2(=O)=O (centres undefined) -11.4%
COc1cc(OC)c(N(C)C(=O)c2cc3c(s2)-c2ccccc2OC3)cc1Cl 3.03%
COc1ccc2c(CNCc3cccs3)c(C(=O)O)n(Cc3ccccc3C)c2c1 -20.8%
CCC(Sc1nc2ncccc2[nH]1)C(=O)Nc1ccccc1F (centres undefined) -21.5%
CCC(=O)NCc1nc2ccccc2n1Cc1ccccc1 -12.8%
Cc1ccc(Cl)cc1NC(=O)N1CCC(CN2CCc3ccccc3C2)CC1 -17.5%
COC(=O)c1ccc2c(=O)n(CCCCCC(=O)N3CCN(c4cccc(C)c4C)CC3)c(=O)[nH]c2c1 -16.6%
CCOc1ccc(NC(=O)c2cc3nc(-c4ccc(OC)cc4)cc(C(F)(F)F)n3n2)cc1 -21.1%
Cn1nc(-c2ccccc2F)c2cc(C(=O)N3CCN(c4ccccc4F)CC3)sc21 -9.92%
CCOC(=O)c1c(C)[nH]c(C)c1S(=O)(=O)N1CCC(C(=O)NCc2ccc(OC)cc2)CC1 -12%
Cc1c(NC(=O)Cc2ccccc2)cccc1-c1nc2cccnc2s1 -20.1%
COCCCNc1nc2c(-c3cccc(Br)c3)nnn2c2ccccc12 -7.5%
Cn1cccc1-c1cc2n(n1)CCC(=O)N2CC(=O)Nc1ccc(F)cc1Cl -1.42%
CCCCOc1ccc(C(=O)Nc2ccc3c(c2)N(C(C)=O)CCC3)cc1 -5.88%
CCOc1cc(CNc2ccc(O)cc2)cc(Cl)c1OCc1ccccc1 -14%
Cc1ccc(S(=O)(=O)N2CCCc3cc(NC(=O)c4cccc(Cl)c4)ccc32)cc1 -10.4%
Cc1cccc(-c2cc(-c3ccccc3)nc(SCC(=O)Nc3ccccc3)c2C#N)c1 -8.46%
CCC(Cn1nnc2ccccc2c1=O)NC(=O)Nc1ccccc1Cl (centres undefined) -13.6%
Cc1ccc(S(=O)(=O)N(CC(O)Cn2c3ccccc3c3ccccc32)c2cccc(C(=O)NCCO)c2)cc1 (centres undefined) -7.11%
O=C(CSc1nc2c([nH]c3ccccc32)c(=O)n1-c1ccc(F)cc1)Nc1ccc2c(c1)OCCO2 -10.9%
CCS(=O)(=O)N1CCc2cc(C(=O)NCc3ccc(C)cc3)ccc21 4.19%
CCOC(=O)N1CCN(CCC(=O)Nc2cccc(F)c2)CC1 -18%
COc1ccc(-c2nc3n(n2)C(c2ccccc2)C(C(=O)Nc2cccnc2)=C(C)N3)cc1 (centres undefined) -18.5%
COCCNC(=O)CN1C(=O)CCn2nc(-c3cn(C)c4ccccc34)cc21 -9.06%
Cc1c(C(=O)NCc2ccc(Cl)cc2)sc2nc3n(c(=O)c12)CCC3 -14.9%
COc1ccc2c(Sc3ccc(C)cc3)c(C(=O)NC(C)c3ccccc3)[nH]c2c1 (centres undefined) -17.5%
CCc1ccccc1NC(=O)c1ccc(F)c(S(=O)(=O)N2CCN(c3ccccc3OC)CC2)c1 -3.64%
CC(=O)N(CC(O)CO)c1c(I)c(C(=O)NCCO)c(I)c(C(=O)NCC(O)CO)c1I (centres undefined) -13.8%
Cc1c(C(=O)O)oc2c1-c1nn(Cc3ccccc3Cl)cc1CC2 -11.7%
COc1cc([C@@H]2Nc3c(F)cccc3[C@@H]3C=CC[C@@H]32)cc(Br)c1OC -7.67%
O=C(Nc1nc2c(F)cccc2s1)c1ccc2c(c1)OCCO2 -16.3%
Cc1ccc(CNC(=O)Cn2c(-c3cccs3)cc3cc(Cl)ccc32)cc1 -15%
